# Measured values as given in article PMC4336329 (PLoS ONE, 2015).
# About 14,000 (4.5%) of roughly 310,000 compounds showed an effect of 50% or more. Effects have a minus sign here. The list shows a part of the results.
# Biological target: human ether-à-go-go-related gene (hERG) potassium channel (human, UniProt Q12809)
# Experiment: primary screen, population patch clamp on CHO cells stably expressing hERG
# 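Also: peak tail current of the secondary pulse compared with the same well before compound.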
# Sequence of human ether-à-go-go-related gene (hERG) potassium channel (Q12809 whole entry, looked up): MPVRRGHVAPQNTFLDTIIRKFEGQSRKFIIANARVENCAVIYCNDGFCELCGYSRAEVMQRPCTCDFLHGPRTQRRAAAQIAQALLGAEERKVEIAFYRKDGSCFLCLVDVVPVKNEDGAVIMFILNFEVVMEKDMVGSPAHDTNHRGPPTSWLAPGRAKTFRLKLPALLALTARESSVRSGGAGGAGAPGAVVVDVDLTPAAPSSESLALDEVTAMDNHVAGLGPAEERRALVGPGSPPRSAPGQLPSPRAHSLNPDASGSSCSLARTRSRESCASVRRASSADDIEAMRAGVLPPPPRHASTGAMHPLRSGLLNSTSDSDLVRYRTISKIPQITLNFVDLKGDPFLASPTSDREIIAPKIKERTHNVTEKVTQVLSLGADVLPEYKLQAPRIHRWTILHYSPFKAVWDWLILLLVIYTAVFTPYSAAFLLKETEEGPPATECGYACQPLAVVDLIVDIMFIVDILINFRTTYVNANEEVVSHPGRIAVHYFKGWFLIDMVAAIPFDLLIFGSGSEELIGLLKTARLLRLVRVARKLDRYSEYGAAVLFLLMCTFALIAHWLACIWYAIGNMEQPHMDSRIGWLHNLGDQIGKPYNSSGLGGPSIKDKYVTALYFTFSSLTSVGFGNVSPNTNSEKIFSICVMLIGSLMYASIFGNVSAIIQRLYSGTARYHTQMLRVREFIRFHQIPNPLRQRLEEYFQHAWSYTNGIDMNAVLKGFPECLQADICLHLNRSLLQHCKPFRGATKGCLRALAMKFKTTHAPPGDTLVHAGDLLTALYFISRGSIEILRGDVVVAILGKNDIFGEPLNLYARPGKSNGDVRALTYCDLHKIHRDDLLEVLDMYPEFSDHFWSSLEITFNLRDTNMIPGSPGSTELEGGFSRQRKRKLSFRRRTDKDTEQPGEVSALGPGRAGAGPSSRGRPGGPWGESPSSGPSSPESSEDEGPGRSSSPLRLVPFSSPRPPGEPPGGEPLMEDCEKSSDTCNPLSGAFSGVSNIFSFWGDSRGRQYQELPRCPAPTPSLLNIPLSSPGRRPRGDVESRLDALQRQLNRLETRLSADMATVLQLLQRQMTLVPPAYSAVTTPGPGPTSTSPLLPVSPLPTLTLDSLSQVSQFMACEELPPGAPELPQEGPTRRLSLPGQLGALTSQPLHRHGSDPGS
row,SMILES,"hERG current change (%, negative = inhibition) at 10uM"
1,CCNC(=S)NC1CC2CCCC(C1)N2CCc1ccccc1 (stereo not shown),-48.7%
2,Cc1nc(N2CCOCC2)c2oc3ccccc3c2n1,-9.35%
3,Cc1ccc(S(=O)(=O)NCC(=O)OCC(=O)c2cccs2)cc1,0.259%
4,Cc1c(F)cccc1NC(=O)CSCC(=O)Nc1ccccc1,1.98%
5,N#Cc1c(SCC(=O)Nc2nccs2)nc2c(c1-c1ccco1)CCCC2,-3.63%
6,CCCC1Cc2[nH]c(=O)c(C#N)cc2CO1 (stereo not shown),12.5%
7,Cc1ccc(C)c(OCCCC(=O)Nc2ccccc2C(N)=O)c1,-18.8%
8,O=C(O)CCCn1c(=O)c2cccn2c2ccc(F)cc21,-0.988%
9,Cc1ccc(NC(=O)C(C)NC(=O)OCc2ccccc2)cc1C (stereo not shown),4.66%
10,CN(C)S(=O)(=O)c1ccc(C(=O)NCC2(N3CCOCC3)CCCCC2)cc1,-9.69%
11,COc1ccc(C(F)(F)F)cc1N/C=C/c1nnnn1-c1ccc(C)cc1,9.33%
12,Cc1ccc(C)c(NC(=O)COC(=O)CSc2ccccc2)c1,-2.49%
13,CCN(CC(=O)NCc1cccs1)CC(=O)Nc1ccccc1C,-7.65%
14,CCc1ccccc1N(CC)C(=O)c1cn(C)c(=O)c2cc(OC)c(OC)cc12,2.87%
15,CCCCC(=O)Nc1cccc(NC(=O)CC)c1,3.94%
16,COc1ccc(C(C)NC(=S)NC2CCCCC2)cc1OC (stereo not shown),7.6%
17,O=C(c1ccc(-n2cnnn2)cc1)N1CCN(C(c2ccccc2)c2ccccc2)CC1,-64.7%
18,O=C(NCc1n[nH]c(=S)n1-c1ccccc1)c1ccc(S(=O)(=O)N2CCOCC2)cc1,6.51%
19,O=C1CC(C(=O)Nc2cccc3ccccc23)C2(CCCC2)O1 (stereo not shown),13.5%
20,O=C(Nc1ccccc1)C1CCN(S(=O)(=O)c2cccs2)CC1,-16.4%
21,O=C(O)C1CCN(S(=O)(=O)c2ccc(N3CCOCC3)c([N+](=O)[O-])c2)CC1,14.7%
22,COc1cc(NC(=O)[C@@H](NC(=O)c2ccco2)C(C)C)c(OC)cc1NC(=O)c1ccccc1,-36%

row,SMILES,"hERG current change (%, negative = inhibition) at 10uM"
1,CCOc1ccc(NC(=O)C2CCCN(S(=O)(=O)c3ccc4[nH]c(=O)ccc4c3)C2)cc1 (stereo not shown),15.7%
2,Cn1cccc1P(=O)(c1cccn1C)c1cccn1C,7.17%
3,CC1(CCl)N([O-])C2=C(CCCC2)[N+]1=O (stereo not shown),12.3%
4,CCOc1ccc(S(=O)(=O)NCCC(=O)OCN2C(=O)c3ccccc3C2=O)cc1,-28.4%
5,COC(=O)C(NC(=O)C(C)Oc1ccccc1)C(C)C (stereo not shown),3.92%
6,N#Cc1c(C(F)(F)F)cc(C2CC2)[nH]c1=O,19.7%
7,Cc1ccc(F)cc1NC(=O)C1CCCN(c2ncccn2)C1 (stereo not shown),-1.96%
8,COC(=O)C1=C(C)NC(C)=C(C(=O)OCC2CCCO2)C1c1cccc(Br)c1 (stereo not shown),-7.03%
9,COc1ccc(S(=O)(=O)CC(O)CN2CCCC2=O)cc1 (stereo not shown),40.3%
10,CCc1ccccc1S(=O)(=O)Cc1ccc(C(=O)NCC2CCCO2)o1 (stereo not shown),-23%
11,COC(=O)c1cccc(NC(=S)Nc2cc(Cl)ccc2OC)c1,18.7%
12,CSCCC(NC(=O)c1ccc(Cl)cc1)C(=O)NC(C)(C)C (stereo not shown),-12.2%
13,Cc1ccc(N2C(=O)C3N=NN(CC(=O)N4N=C(c5cccc6ccccc56)CC4c4ccccc4)C3C2=O)cc1 (stereo not shown),7.36%
14,O=C(Nc1cccc(C(F)(F)F)c1)Oc1ccc(Cl)c2cccnc12,9.96%
15,Cc1ccc(-c2cc(C(=O)N3CCOCC3)c3cc(C)ccc3n2)cc1,-4.82%
16,Cc1ccc(NC(=O)C(=O)NC(C)C2COc3ccccc3O2)cc1 (stereo not shown),15.8%
17,C/C(CCN1CCCCc2nc(C)c(C)cc21)=N\O[C@H](C)c1cn([C@H](CO)Cc2ccccc2)nn1,-41.8%
18,Cc1cc(C)c2nc(SC(C)C(=O)NCC(=O)Nc3ccc(F)c(F)c3F)cc(C)c2c1 (stereo not shown),12.1%
19,Cc1cc(/C=C2\C(=O)NC(=O)N(c3ccccc3F)C2=O)c(C)n1-c1cc(C(=O)O)cc(C(=O)O)c1,23.5%
20,CCc1ccc(Nc2n[n+](-c3ccccc3)c(-c3ccc(OC)c(Br)c3)s2)cc1.[Cl-],-44%
21,CC(C)CNS(=O)(=O)c1cc(C(=O)OC2CCOC2=O)c(Cl)cc1Cl (stereo not shown),0.965%
